This note sets out measurements from PubChem BioAssay (NCI).

This test deals with NCI-H322M lung. The test can be described thus: NCI anticancer screen, dose series, 48 h.

Molecules are shown by their SMILES.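 Briefly, cells in 96-well plates were exposed to five compound concentrations for 48 h, and endpoints were estimated by linear interpolation. Here, GI50 denotes the concentration required for 50% inhibition of growth. TGI is the concentration that stops growth completely.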

For the compound `CCC1=Cc2cc(OC)ccc2OC12C=Cc1cc(OC)ccc1O2` (configuration not stated), the GI50 is 0.74 µM and the TGI was more than 100 µM.
